From the supplement of paper PMC10369915
Some of the results follow. No stated cut-off is given here; in the data, active = 3.2 or more and inactive = the rest. Most of these values are background signal.

B1: INSR_Y1189_R1191Q_YF (peptide)
chain: IFETDYFQKGG
B2: INSR_Y1361 (peptide)
chain: EEHIPYTHMNG
B3: INSR_Y457 (peptide)
chain: KLFFHYNPKLC
B4: INSR_Y457_N458D (peptide)
chain: KLFFHYDPKLC
B5: INSR_Y94 (peptide)
chain: LLFRVYGLESL
B6: INSR_Y992 (peptide)
chain: PLGPLYASSNP
B7: INSR_Y999_P997T (peptide)
chain: SSNTEYLSASD
B8: IPO5_Y530 (peptide)
chain: EKFVPYYDLFM
B9: IPO5_Y530_YF (peptide)
chain: EKFVPYFDLFM
B10: IQGAP2_Y710 (peptide)
chain: KQRKEYMHRRQ
B11: IQGAP2_Y710_R714W (peptide)
chain: KQRKEYMHRWQ
B12: IQGAP3_Y1098_P1097S (peptide)
chain: RSHLSYDVTPE
B13: IRAK3_Y61_H57R (peptide)
chain: RRIEKYVDQGK
B14: IRAK4_Y354 (peptide)
chain: VGTTAYMAPEA
B15: IRAK4_Y354_M355V (peptide)
chain: VGTTAYVAPEA
B16: IRF2BPL_Y423_K418N (peptide)
chain: NLFIEYPTGSG
B17: IRF6_Y97_D98H (peptide)
chain: EFNLMYHGTKE
B18: IRF8_Y107_K108E (peptide)
chain: DISEPYEVYRI
B19: IRF8_Y107_K108E_YF (peptide)
chain: DISEPYEVFRI

Target: SHP2 C-SH2 domain E139D
Assay: enrichment score (SH2-bound / input frequency) (ratio); bacterial display of known human phosphotyrosine sites (pTyr-Var adds point mutants) read by sequencing; higher = stronger binding; tyrosines were phosphorylated by kinases first
Settings: peptide library: pTyr-Var
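Further: displayed peptides selected on beads carrying the immobilized SH2 domain, with library peptides lacking any tyrosine serving as negative controls.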

For B1, which enrichment score is on record?
The enrichment score was inactive: 1.12.

B2 was tested. Which enrichment score did it give?
The enrichment score was inactive: 0.614.

B3 was tested. Which enrichment score did it give?
The enrichment score was inactive: 1.58.

Which enrichment score does the source give for B4 here?
The enrichment score was inactive: 0.963.

Which enrichment score does the source give for B5 here?
The enrichment score was inactive: 0.817.

How did the enrichment score turn out when B6 was run?
The enrichment score was inactive: 0.735.

B7 was tested. Which enrichment score did it give?
The enrichment score was inactive: 0.444.

How did the enrichment score turn out when B8 was run?
Its enrichment score is inactive: 1.2.

Which enrichment score does the source give for B9 here?
The enrichment score was inactive: 1.67.

With B10 as the binder, how does the enrichment score read?
The enrichment score was inactive: 0.312.

For B11, which enrichment score is on record?
The enrichment score was active: 4.42.

With B12 as the binder, how does the enrichment score read?
Its enrichment score is inactive: 0.817.

With B13 as the binder, how does the enrichment score read?
Its enrichment score is inactive: 0.413.

B14 was tested. Which enrichment score did it give?
The enrichment score was inactive: 0.675.

Which enrichment score does the source give for B15 here?
Its enrichment score is inactive: 0.722.

How did the enrichment score turn out when B16 was run?
The enrichment score was inactive: 1.

For B17, which enrichment score is on record?
The enrichment score was inactive: 0.875.

Which enrichment score does the source give for B18 here?
Its enrichment score is inactive: 0.436.

For B19, which enrichment score is on record?
Its enrichment score is inactive: 0.964.

Target: SHP2 C-SH2 domain wild-type
Assay: as above
Settings: peptide library: pTyr-Var

How did the enrichment score turn out when B1 was run?
The enrichment score was inactive: 0.934.

Which enrichment score does the source give for B2 here?
The enrichment score was inactive: 0.657.

Which enrichment score does the source give for B3 here?
The enrichment score was inactive: 1.45.

With B4 as the binder, how does the enrichment score read?
Its enrichment score is inactive: 1.11.

How did the enrichment score turn out when B5 was run?
The enrichment score was inactive: 0.671.

With B6 as the binder, how does the enrichment score read?
Its enrichment score is inactive: 0.652.

Which enrichment score does the source give for B7 here?
The enrichment score was inactive: 0.58.

B8 was tested. Which enrichment score did it give?
The enrichment score was inactive: 1.06.

With B9 as the binder, how does the enrichment score read?
Its enrichment score is inactive: 1.92.

B10 was tested. Which enrichment score did it give?
Its enrichment score is inactive: 0.313.

Which enrichment score does the source give for B11 here?
Its enrichment score is active: 3.78.

B12 was tested. Which enrichment score did it give?
The enrichment score was inactive: 0.707.

For B13, which enrichment score is on record?
The enrichment score was inactive: 0.22.

With B14 as the binder, how does the enrichment score read?
Its enrichment score is inactive: 0.855.

Which enrichment score does the source give for B15 here?
The enrichment score was inactive: 0.817.

How did the enrichment score turn out when B16 was run?
Its enrichment score is inactive: 0.868.

Which enrichment score does the source give for B17 here?
Its enrichment score is inactive: 0.718.

How did the enrichment score turn out when B18 was run?
The enrichment score was inactive: 0.585.

With B19 as the binder, how does the enrichment score read?
The enrichment score was inactive: 0.77.

Target: SHP2 N-SH2 domain L43F
Assay: as above
Settings: peptide library: pTyr-Var

B1 was tested. Which enrichment score did it give?
The enrichment score was inactive: 1.09.

With B2 as the binder, how does the enrichment score read?
Its enrichment score is inactive: 0.671.

B3 was tested. Which enrichment score did it give?
The enrichment score was inactive: 1.2.

Which enrichment score does the source give for B4 here?
The enrichment score was inactive: 0.712.

Which enrichment score does the source give for B5 here?
The enrichment score was inactive: 0.85.

With B6 as the binder, how does the enrichment score read?
The enrichment score was inactive: 0.86.

How did the enrichment score turn out when B7 was run?
Its enrichment score is inactive: 0.465.

For B8, which enrichment score is on record?
Its enrichment score is inactive: 1.15.

B9 was tested. Which enrichment score did it give?
The enrichment score was inactive: 1.75.

With B10 as the binder, how does the enrichment score read?
The enrichment score was inactive: 0.346.

B11 was tested. Which enrichment score did it give?
Its enrichment score is active: 3.58.

With B12 as the binder, how does the enrichment score read?
Its enrichment score is inactive: 0.89.

B13 was tested. Which enrichment score did it give?
The enrichment score was inactive: 0.3.

B14 was tested. Which enrichment score did it give?
Its enrichment score is inactive: 0.821.

How did the enrichment score turn out when B15 was run?
The enrichment score was inactive: 0.861.

B16 was tested. Which enrichment score did it give?
Its enrichment score is inactive: 0.895.

How did the enrichment score turn out when B17 was run?
Its enrichment score is inactive: 0.757.

How did the enrichment score turn out when B18 was run?
The enrichment score was inactive: 0.651.

B19 was tested. Which enrichment score did it give?
Its enrichment score is inactive: 0.696.

Target: SHP2 N-SH2 domain T42A
Assay: as above
Settings: peptide library: pTyr-Var

How did the enrichment score turn out when B1 was run?
The enrichment score was inactive: 0.717.

B2 was tested. Which enrichment score did it give?
The enrichment score was inactive: 0.608.

For B3, which enrichment score is on record?
Its enrichment score is inactive: 1.39.

For B4, which enrichment score is on record?
Its enrichment score is inactive: 1.1.

With B5 as the binder, how does the enrichment score read?
Its enrichment score is inactive: 0.884.

Which enrichment score does the source give for B6 here?
The enrichment score was inactive: 0.735.

With B7 as the binder, how does the enrichment score read?
The enrichment score was inactive: 0.434.

B8 was tested. Which enrichment score did it give?
Its enrichment score is inactive: 2.27.

B9 was tested. Which enrichment score did it give?
The enrichment score was inactive: 2.85.

B10 was tested. Which enrichment score did it give?
Its enrichment score is inactive: 0.404.

How did the enrichment score turn out when B11 was run?
The enrichment score was active: 3.45.

Which enrichment score does the source give for B12 here?
Its enrichment score is inactive: 0.516.

Which enrichment score does the source give for B13 here?
The enrichment score was inactive: 0.307.

For B14, which enrichment score is on record?
Its enrichment score is inactive: 0.728.

For B15, which enrichment score is on record?
Its enrichment score is inactive: 0.856.

For B16, which enrichment score is on record?
Its enrichment score is inactive: 0.744.

With B17 as the binder, how does the enrichment score read?
Its enrichment score is inactive: 0.806.

For B18, which enrichment score is on record?
The enrichment score was inactive: 0.605.

For B19, which enrichment score is on record?
Its enrichment score is inactive: 0.602.

Target: SHP2 N-SH2 domain T52S
Assay: as above
Settings: peptide library: pTyr-Var

Which enrichment score does the source give for B1 here?
Its enrichment score is inactive: 0.954.

How did the enrichment score turn out when B2 was run?
The enrichment score was inactive: 0.617.

B3 was tested. Which enrichment score did it give?
The enrichment score was inactive: 1.05.

For B4, which enrichment score is on record?
The enrichment score was inactive: 0.69.

Which enrichment score does the source give for B5 here?
The enrichment score was inactive: 0.374.

B6 was tested. Which enrichment score did it give?
Its enrichment score is inactive: 0.912.

For B7, which enrichment score is on record?
Its enrichment score is inactive: 0.475.

B8 was tested. Which enrichment score did it give?
The enrichment score was inactive: 1.33.

With B9 as the binder, how does the enrichment score read?
Its enrichment score is inactive: 1.44.

B10 was tested. Which enrichment score did it give?
Its enrichment score is inactive: 0.372.

B11 was tested. Which enrichment score did it give?
Its enrichment score is active: 4.21.

How did the enrichment score turn out when B12 was run?
Its enrichment score is inactive: 0.855.

Which enrichment score does the source give for B13 here?
The enrichment score was inactive: 0.279.

Which enrichment score does the source give for B14 here?
The enrichment score was inactive: 0.719.

With B15 as the binder, how does the enrichment score read?
The enrichment score was inactive: 0.812.

How did the enrichment score turn out when B16 was run?
Its enrichment score is inactive: 0.879.

Which enrichment score does the source give for B17 here?
Its enrichment score is inactive: 0.694.

For B18, which enrichment score is on record?
The enrichment score was inactive: 0.749.

For B19, which enrichment score is on record?
The enrichment score was inactive: 0.811.

Target: SHP2 N-SH2 domain wild-type
Assay: as above
Settings: peptide library: pTyr-Var

With B1 as the binder, how does the enrichment score read?
Its enrichment score is inactive: 0.931.

B2 was tested. Which enrichment score did it give?
The enrichment score was inactive: 0.795.

For B3, which enrichment score is on record?
The enrichment score was inactive: 1.15.

B4 was tested. Which enrichment score did it give?
Its enrichment score is inactive: 1.14.

For B5, which enrichment score is on record?
The enrichment score was inactive: 0.752.

Which enrichment score does the source give for B6 here?
The enrichment score was inactive: 0.929.

With B7 as the binder, how does the enrichment score read?
The enrichment score was inactive: 0.534.

For B8, which enrichment score is on record?
Its enrichment score is inactive: 1.06.

Which enrichment score does the source give for B9 here?
The enrichment score was inactive: 2.38.

With B10 as the binder, how does the enrichment score read?
The enrichment score was inactive: 0.383.

How did the enrichment score turn out when B11 was run?
Its enrichment score is active: 3.71.

How did the enrichment score turn out when B12 was run?
Its enrichment score is inactive: 0.847.

With B13 as the binder, how does the enrichment score read?
Its enrichment score is inactive: 0.325.

B14 was tested. Which enrichment score did it give?
The enrichment score was inactive: 0.683.

For B15, which enrichment score is on record?
Its enrichment score is inactive: 0.976.

B16 was tested. Which enrichment score did it give?
The enrichment score was inactive: 1.02.

For B17, which enrichment score is on record?
Its enrichment score is inactive: 0.679.

With B18 as the binder, how does the enrichment score read?
Its enrichment score is inactive: 0.506.

Which enrichment score does the source give for B19 here?
The enrichment score was inactive: 0.81.
